Experimental data published in PubChem BioAssay AID1948 (National Center for Advancing Translational Sciences (NCATS), 2009).
In all, about 110,000 compounds went through this assay and about 20 (0.02%) were called active. The inconclusive results got no clear call from the source; some entries with a clear call stand among them for comparison. The call rests on the fitted dose curve; in most records, active means well fitted activation curve with a large enough effect; inconclusive means small, poorly fitted or top-dose-only effect; inactive means no such curve, though single readings can be large or run the other way. Potencies beside an inconclusive call are fits to weak or partial responses and may not hold up.

test: qHTS Assay for Compounds that Induce Erasure of Genomic Imprints; settings: mouse ES Peg3-LacZ reporter, beta-gal luminescence, 40 h; activity change, positive = activation: at 10.9 µM (top of the series) unless noted;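 on activity change, positive = activation: 0% = negative control wells on the plate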
How it was run: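 Readout: BetaGlo luminescence (5 min, room temp) for LacZ from the normally silent maternal Peg3 allele in female Peg3LacZ-Neo ES cells. Cells 300/well, 40 h, 37C, 5% CO2. Data normalized per plate to negative controls.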
Potency means the concentration at half of the fitted maximal effect; tags describe the fitted curve by direction and shape.

| SMILES | activity change, positive = activation | Potency |
| --- | --- | --- |
| CCNC(=O)C1CC(=O)N(Cc2ccc3c(c2)OCO3)C(=Nc2ccc(OCC)cc2)S1 (stereo not drawn) | inactive: -5% [at 60.7 µM] |  |
| CC1=C(C(N)=O)C(c2cccc(Br)c2)n2nc(SCc3ccccc3)nc2N1 (stereo not drawn) | inconclusive: 53.1% [activator] |  |
| CC(=O)Nc1cccc(C(=O)NCc2ccc3c(c2)CCN3C(=O)c2ccccc2)c1 | inconclusive: 68.2% [activator] |  |
| O=C(Nc1ccc(CN2CCOCC2)cc1)c1cc2ccccc2o1 | inactive: -2.77% [at 60.7 µM] |  |
| Cc1c(-c2nc(N)nc(Nc3ccccc3)n2)oc2ccccc12 | inactive: -6.57% [at 60.7 µM] |  |
| CCNc1ncc2nc(-c3cc(F)cc(F)c3)c(=O)n(CCOC)c2n1 |  | inconclusive: 3.98 µM [activator, full curve] |
| O=c1c2[nH]c3ccccc3c2ncn1Cc1ccccn1 | inactive: -15.4% [at 60.7 µM] |  |
| CCOC(=O)C1=C(CS(=O)(=O)c2c(C)cc(C)cc2C)NC(=O)NC1c1cccc(OC)c1 (stereo not drawn) | inconclusive: 166% [activator] |  |
| COc1ccc(-c2nc3cnc(OC)nc3n(CCc3ccccc3)c2=O)cc1 | inconclusive: 31.5% [activator] [at 40.7 µM] |  |
| COCC(COCCCNC(=O)Nc1ccc(Br)cc1)OC (stereo not drawn) |  | inconclusive: 3.98 µM [activator, single point] |
| CCOc1ccc(OCC)c(NC(=O)CCC(=O)N2CCOc3ccccc32)c1 | inconclusive: 38.7% [activator] |  |
| COc1ccc2oc(C(=O)OCC(=O)c3ccc4c(c3)OCCO4)c(C)c2c1 |  | inconclusive: 31.6 µM [activator, single point] |
| Cc1ccc(CNC(=O)c2nn(C)c3c2CS(=O)(=O)c2ccccc2-3)cc1 | inconclusive: 128% [activator] |  |
| Cc1ccc2c(=O)cc(C(=O)N(Cc3ccc(N(C)C)cc3)C3CCS(=O)(=O)C3)oc2c1 (stereo not drawn) | inconclusive: 31.8% [activator] |  |
| Cc1cc(Cl)ccc1N1C(=O)CC(SCCC(=O)O)C1=O (stereo not drawn) |  | inconclusive: 31.6 µM [activator, single point] |
| CNS(=O)(=O)c1cn(CC(=O)N2CCN(c3cc(C)ccc3C)CC2)cc1S(=O)(=O)NC | inconclusive: 34.7% [activator] |  |
| CCOc1ccc(CCNC(=O)Cn2nc(CC)n3c(cc4sccc43)c2=O)cc1 | inconclusive: 63.3% [activator] |  |
| COc1ccc(C(=O)Nc2noc3ccccc23)cc1 | inactive: -52.9% |  |
| CCOc1cc(C(=O)N2CCC(c3ccncc3)CC2)cc(OCC)c1OCC | inconclusive: 53.4% [activator] |  |
| O=C(Nc1ccccc1)N1CCC(c2ccccc2)C1 (stereo not drawn) | inactive: -42.1% [at 60.7 µM] |  |
| COC(=O)c1cc2occc2n1Cc1cccc(C)c1 | inconclusive: 33.9% [activator] |  |
| c1ccc2c(N3CCOCC3)nc(-c3ccoc3)nc2c1 |  | inconclusive: 3.98 µM [activator, single point] |
| CCC(=O)Nc1nonc1-c1nc2ccccc2n1Cc1ccccc1 |  | inconclusive: 3.16 µM [activator, partial curve, poor fit] |
| CCOC(=O)CSc1nc2cc(C(=O)NCc3ccco3)ccc2c(=O)n1C1CCCCC1 |  | inconclusive: 31.6 µM [activator, single point] |
| COC(=O)Nc1nnc(-c2ccccc2Cl)s1 |  | inconclusive: 0.199 µM [activator, single point] |

| SMILES | activity change, positive = activation | Potency |
| --- | --- | --- |
| O=c1c(-c2cccs2)nc2cnc(Nc3ccccc3)nc2n1C[C@H]1CCCO1 |  | inconclusive: 31.6 µM [activator, single point] |
| CCOC(=O)c1sc2nc3c(cc2c1N)COC(C)(C)C3 | inactive: -26.4% [at 60.7 µM] |  |
| CCOc1ccc(NC(=O)CN2CCN(CC(=O)Nc3ccc(C(=O)OC)cc3)CC2)cc1 |  | inconclusive: 20 µM [activator, single point] |
| NC(=O)c1sc2nc3c(c(-c4cccs4)c2c1N)CCCC3 | inactive: -4.7% [at 60.7 µM] |  |
| CNc1cc(-c2ccccc2C(F)(F)F)ncn1 |  | inconclusive: 31.6 µM [activator, single point] |
| O=C(OC1Cc2c(O)cc(O)cc2OC1c1cc(O)c(O)c(O)c1-c1c(C2Oc3cc(O)cc(O)c3CC2OC(=O)c2cc(O)c(O)c(O)c2)cc(O)c(O)c1O)c1cc(O)c(O)c(O)c1 (stereo not drawn) | inactive: -0.125% [at 60.7 µM] |  |
| Cc1ccccc1CSc1nc2ccsc2c(=O)n1CCC(C)C | inconclusive: 36% [activator] |  |
| Cc1cc(C)cc(-n2c(SCC(=O)N3CCOCC3)nc3c([nH]c4ccccc43)c2=O)c1 | inconclusive: 32.8% [activator] |  |
| CCOc1ccc(CCNC(=O)CCCn2c(=O)c3cccn3c3ccccc32)cc1 | inconclusive: 39% [activator] |  |
| Cc1ccc(CNC(=O)CCCn2c(=O)c3ccccc3n(CC(=O)Nc3ccc(C)c(C)c3)c2=O)cc1 | inactive: 9.42% |  |
| C[C@H](CCC(=O)O)[C@H]1CC[C@@H]2[C@@H]3CC[C@H]4C[C@@H](O)CC[C@@]4(C)[C@@H]3C[C@H](O)[C@@]21C |  | inconclusive: 1.58 µM [activator, partial curve] |
| O=C(NCCCn1ccnc1)C(F)(F)C(F)(F)C(=O)NCCCn1ccnc1 |  | inconclusive: 31.6 µM [activator, single point] |
| CC(=O)Nc1ccc2nc(-c3cc(C)ccc3C)[nH]c2c1 | inconclusive: 37.8% [activator] |  |
| Cc1ccc2[nH]c(=O)c(CN(Cc3ccccc3)Cc3nnnn3C3CCCC3)cc2c1 | inactive: 19% [at 60.7 µM] |  |
| Cc1ccsc1-c1nc(CSCC(=O)NCc2ccc3c(c2)OCO3)c(C)o1 | inactive: -12.3% [at 60.7 µM] |  |
| CCCn1c(=N)c(C(=O)NCc2ccco2)cc2c(=O)n3cc(C)ccc3nc21 | inactive: -8.81% |  |
| COc1cc(NC(=O)Cc2cccs2)ccc1-n1cnnn1 |  | inconclusive: 5.01 µM [activator, single point] |
| COCCNC(=O)CCCn1c(SCc2ccccc2C)nc2c(sc3ccccc32)c1=O | inactive: -10.7% |  |
| Cc1ccc(NC(=O)CSc2nc3nccnc3c(=O)n2CCc2c[nH]c3ccccc23)cc1C | inactive: 8.17% |  |
| CC(C)CCNC(=O)C1CCC(CNS(=O)(=O)c2cccc3nsnc23)CC1 (stereo not drawn) | inconclusive: 31.1% [activator] |  |
| COc1ccc(NC(=O)Cn2ccn(-c3ccc(C)c(C)c3)c(=O)c2=O)cc1Cl | inconclusive: 35.7% [activator] |  |
| Fc1ccc(-n2nc(-c3ccccc3)c3cnc4ccccc4c32)cc1Cl | inconclusive: 31.9% [activator] |  |
| COc1ccccc1CNC(=O)c1ccc(CS(=O)c2ccccc2Cl)o1 (stereo not drawn) | inactive: -10.1% |  |
| CCN(CC)S(=O)(=O)c1ccc(Oc2cccc(C(C)=O)c2)nc1 | inactive: -13.6% [at 60.7 µM] |  |
| Cc1ccc(CNC(=O)c2c[nH]n3c(=O)c(Cc4ccc(F)cc4Cl)c(C)nc23)cc1 | inconclusive: 48.3% [activator] |  |

| SMILES | activity change, positive = activation | Potency |
| --- | --- | --- |
| Cc1noc2ncnc(NCc3ccc(Cl)cc3)c12 | inconclusive: 39.5% [activator] |  |
| CN(C(=O)c1ccncc1)c1ccccc1 |  | inconclusive: 1.26 µM [activator, partial curve] |
| COc1ccc(C(CC(=O)Nc2nccs2)n2cccc2)cc1 (stereo not drawn) | inactive: -50.2% [at 60.7 µM] |  |
| COc1cc([N+](=O)[O-])ccc1NC(=O)N1CCN(c2cc(-c3noc(C)n3)ccc2C)CC1 | inconclusive: 46.8% [activator] |  |
| O=C(O)/C(=C\c1ccccc1)Cc1ccccc1 |  | inconclusive: 1.26 µM [activator, single point] |
| CC(C)CC(=O)NCC1(N(C)C)CCCCC1 | inactive: -5.7% |  |
| C=CCNC1=C2C[C@@H](C)C[C@H](OC)[C@H](O)[C@@H](C)/C=C(\C)[C@H](OC(N)=O)[C@@H](OC)/C=C/C=C(\C)C(=O)NC(=CC1=O)C2=O | inactive: 23.6% |  |
| COC(=O)c1cnc(N2CCN(c3ccccc3OC)CC2)c2ccccc12 | inactive: 2.25% |  |
| CCc1cccc(N2C(=O)CS(=O)(=O)C23C(=O)N(Cc2ccc(F)cc2)c2ccc(C)cc23)c1 (stereo not drawn) | inconclusive: 34.7% [activator] |  |
| CC1=C(/C=C/C(C)=C/C=C/C(C)=C/C=O)C(C)(C)CCC1 | inactive: -24.8% [at 60.7 µM] |  |
| COc1cc(NC(=O)c2cnc3c(-c4ccc(F)cc4)c(C)nn3c2C)cc(OC)c1 | inconclusive: 31.5% [activator] |  |
| CCN1C(=O)C2(/C(=C(\O)c3ccc4c(c3)OCCO4)C(=O)C(=O)N2CCCOC)c2ccccc21 (stereo not drawn) |  | inconclusive: 5.01 µM [activator, single point] |
| COc1cc(NC(=O)NCCn2nnc3cc(S(=O)(=O)N(C)C)ccc32)cc(OC)c1 | inactive: -10.3% |  |
| C=CCn1c(SCC(=O)Nc2ccc3c(c2)OCO3)nnc1-c1cc(Br)ccc1O |  | inconclusive: 15.8 µM [activator, partial curve] |
| Cn1cccc1C(=O)OCc1csc(-c2ccccc2)n1 | inactive: -90.5% [at 60.7 µM] |  |
| c1nc2sc3c(c2c2nnnn12)CCCC3 |  | inconclusive: 5.01 µM [activator, partial curve] |
| COCCn1c(=O)c(-c2ccc(F)cc2)nc2cnc(N(C)C)nc21 |  | inconclusive: 25.1 µM [activator, single point] |
| CC(C)NC(=O)CCC(=O)N1Cc2ccccc2Oc2ncccc21 | inconclusive: 30.7% [activator] |  |
| COc1ccccc1CNS(=O)(=O)c1cnc(N)nc1 | inconclusive: 46% [activator] |  |
| O=C(NCC1COc2ccccc2O1)c1ccc(NC(=O)c2ccco2)cc1 (stereo not drawn) |  | inconclusive: 31.6 µM [activator, single point] |
| O=C(NC1(C(F)(F)F)NC(=O)N(CCc2ccccc2)C1=O)c1ccc(Cl)cc1 (stereo not drawn) | inconclusive: 32% [activator] |  |
| Cc1cc(N2C(=O)CCC2=O)n(-c2ccccc2)n1 |  | inconclusive: 6.31 µM [activator, single point] |
| COC(=O)c1cc2oc(C)cc2n1CC(=O)Nc1ccc(C)c(C)c1 |  | inconclusive: 6.31 µM [activator, single point] |
